Laboratory results reported in the supplement of paper PMC3334620.
Whole data set: some 33,000 sequences, median “E-score (-0.5 to 0.5)” near -0.01, cut for the highest 2% near 0.26. The list shows a part of the results.

Each sequence was assayed against Ste12 (UniProt P13574) (assay: PBM E-score (8-mer binding enrichment) (E-score (-0.5 to 0.5)); higher = stronger / more preferred TF binding; most listed sequences are background and not binding sites). Conditions: protein concentration: 200 nM; construct: GST-DNA-binding domain.
Method in brief: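 GST-tagged yeast TFs (full-length or DNA-binding domain) were made by PURExpress in vitro transcription/translation and applied at about 100-200 nM to universal all-10-mer Agilent arrays. The arrays were made double-stranded by primer extension, on fresh or once-stripped slides. Bound protein was detected with fluorescent anti-GST, and scans were normalised with masliner. Each ungapped eight-base word, pooled with its reverse complement, received an E-score (modified Wilcoxon-Mann-Whitney statistic) from the Universal PBM Analysis Suite.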

Sequence	PBM E-score
GCGTTCCA	-0.00659
CAGACGCC	-0.0831
CCTTTCAC	0.0433
ATTGGCCG	-0.0265
TACAGGAA	0.0897
CTACCTTA	-0.00289
ATGATTCG	0.115
GAGTTCTA	-0.0483
AGCGTGAT	-0.154
GTACGTCA	-0.253
GCATATTA	-0.0187
GCGTTTCC	0.0828
AGTCGTAG	-0.212
CAACGCTC	-0.118
CAGAGGAG	-0.212
CCTTGGCC	-0.277
ACGAACAG	-0.0895
GCCAAAAA	0.22
ATAAACAC	0.121
CGCCGATC	0.0606
TGGGACAA	0.0495
GACCGCAA	-0.00213
GCGGTTCA	-0.0271
GCAACCTA	0.0415
CCCCCAAG	-0.0992

Sequence	PBM E-score
AGCCGAAC	-0.0882
CCAGCACG	-0.134
ACATTCCT	-0.0262
CATCTCTA	0.0174
AAGAACCG	0.0583
CTCAGGAC	-0.0637
AACTACAT	0.0317
ACTTCTAT	-0.0238
CCTCCAGG	-0.116
CACAAACC	0.0105
ATGCACGA	-0.0159
ATAATTAA	0.276
AGCATCAC	-0.164
ACAAGTGT	-0.139
GAGCTCCA	-0.0868
ACATGGAG	-0.15
AAGACATT	-0.135
GATCGGTA	0.00632
GCATGAAA	0.318
CGCCCTGA	-0.14
CTGGTATC	-0.136
ACGATCTG	-0.159
AGCAGGGC	-0.0944
GCACCGCC	-0.083
CCTGAGCA	0.0288

Sequence	PBM E-score
ACTACCAC	0.0487
AGAAATCC	0.00799
AGGGATTA	0.059
AATCCGTC	0.113
CGAAGAAG	-0.0919
ACCCAAGC	-0.181
GAACGGGA	-0.22
CCTTGGAA	-0.0213
GTGGCGGA	-0.0445
AGGATACA	-0.195
AAACTCTT	0.0318
GACAAGGA	-0.0166
CTAGTGCC	-0.137
CAGCCACG	0.00078
ACAAGGCA	-0.133
GTACACAC	0.0515
ACTACCTG	-0.0539
GAGTGGCA	-0.0621
AGTCTCAA	0.101
AAAAGGCT	0.0572
ACTAGGTA	-0.245
CCGACATA	0.137
TGGGCCCA	-0.0326
TAACCAAA	0.255
CTAAATAC	0.0368

Sequence	PBM E-score
CTTGATGA	0.0849
TGACTAAA	0.0332
CGTCCATC	-0.0101
CGAAGATC	-0.149
AGTGGTAA	0.0447
ACCTGTCG	0.00512
CGTCGAAG	0.114
GGCGTAAA	0.0361
ATTGAGAA	0.277
ACCGTCGA	0.0435
GGCCGTAC	-0.00176
CATAGAGG	-0.0232
GCGGGTAA	-0.0288
AGCATTAT	-0.0448
ACCCGAAA	0.153
ACGAGGTC	-0.0542
GGGTATTA	0.121
ATTTGCCC	0.0444
ACTGGTAC	7e-05
CTCATTTC	-0.0747
CGTGAACA	0.137
AATTAGGC	0.179
ATATGTGC	-0.0357
CGTCATGA	0.0444
ATACCGAG	-0.0406

Sequence	PBM E-score
ATAGTCTA	-0.101
TCCGTCCA	0.00025
TAGGTCAA	-0.0728
CGTAATAG	0.126
GTCCTTAA	0.0395
AATCCGGC	-0.0829
CCTAATTA	-0.0252
CCCCCATC	-0.0759
ATATATTC	0.216
ACAAACAA	0.0589
CTGCATCC	-0.183
CCTTTCTC	-0.165
CGTACCGA	-0.15
CAGTCATC	-0.182
CCACCTGC	0.0383
ACGAATTG	0.0614
GTTTAGTA	0.064
AAGCTCTG	-0.0799
CTAAGCAA	-0.0422
CGAACGAA	0.0545
AGCTCTCA	-0.272
GTTTTGCA	0.116
GAGCTTCA	-0.0291
AGTTTCTG	0.15
CCCAGTGC	-0.0234

Sequence	PBM E-score
GATCGAAC	-0.12
CAAGTTTA	0.00155
GCGGTTAC	-0.0467
ACCCTAGC	-0.149
ATACATAC	0.134
ATAGCAGC	-0.184
AAATAAGT	0.126
AGTCTTTG	0.0528
GTAGTGGA	-0.0969
ACCACTCG	-0.0888
CCCTCCTC	0.0435
ACGTACCA	-0.197
AATCTCTC	0.0241
GCATCGGA	0.00997
CGGATTCA	-0.0888
GGCCTTGA	-0.112
TCTTTCAA	0.0772
CTTTGACC	0.128
AATCCGAG	0.101
AGGAATGC	0.026
AACAGCAC	0.0668
GCTGAGGA	-0.142
ACGGTTAG	-0.25
TAACAGCA	0.144
ATGCCGGG	0.0215

Sequence	PBM E-score
TCAGCTGA	0.144
ACTTTGCG	-0.0237
ATGAGCAG	-0.0984
ACCATCCG	0.0833
ACCCATCG	-0.0818
CCTACACA	0.158
AAAAGAGA	0.167
AATTATAC	0.146
ACGGTAGA	-0.119
AGACAACG	-0.0139
CGGATGAG	-0.11
ACTTCATA	0.21
ACAGTGCA	-0.00511
CACGGATA	0.146
AAAGTGCC	-0.155
CATTGTTC	0.126
GCTATTGA	-0.0818
AATAGCCG	-0.00261
CAATGACC	-0.123
GCGTGATA	-0.12
CACTAAGG	-0.048
ACACATAT	0.138
